According to US20240076343A1 (CEPHALON, published 2024):

Experiments:
[1] = molecular target: T1, high-affinity hIL-2 receptor (IL-2Rαβγ) (human, UniProt P01589 22-272; P14784 27-551; P31785 23-369); test: cell-based or functional assay
T1 sequence 1: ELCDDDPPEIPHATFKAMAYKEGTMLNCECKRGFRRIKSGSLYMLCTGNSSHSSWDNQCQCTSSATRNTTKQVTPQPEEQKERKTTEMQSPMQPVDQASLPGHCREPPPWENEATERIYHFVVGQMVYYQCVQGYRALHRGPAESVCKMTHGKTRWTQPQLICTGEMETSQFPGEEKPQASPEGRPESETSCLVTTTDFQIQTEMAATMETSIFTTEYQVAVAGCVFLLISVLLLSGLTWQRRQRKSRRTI
T1 sequence 2: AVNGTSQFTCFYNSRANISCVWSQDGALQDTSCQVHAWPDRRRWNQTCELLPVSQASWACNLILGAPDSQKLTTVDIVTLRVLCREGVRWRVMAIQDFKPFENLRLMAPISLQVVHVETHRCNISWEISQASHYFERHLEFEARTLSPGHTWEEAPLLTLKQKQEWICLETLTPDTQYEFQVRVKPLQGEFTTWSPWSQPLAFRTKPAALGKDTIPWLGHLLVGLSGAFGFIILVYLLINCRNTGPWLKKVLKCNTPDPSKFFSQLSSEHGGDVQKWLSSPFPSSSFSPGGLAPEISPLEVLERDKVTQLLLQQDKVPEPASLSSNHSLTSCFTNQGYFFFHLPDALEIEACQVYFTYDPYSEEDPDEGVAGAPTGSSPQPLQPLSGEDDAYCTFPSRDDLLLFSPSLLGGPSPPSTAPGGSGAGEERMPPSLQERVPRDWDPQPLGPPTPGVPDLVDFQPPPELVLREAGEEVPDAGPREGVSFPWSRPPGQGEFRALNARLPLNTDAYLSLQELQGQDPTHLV
T1 sequence 3: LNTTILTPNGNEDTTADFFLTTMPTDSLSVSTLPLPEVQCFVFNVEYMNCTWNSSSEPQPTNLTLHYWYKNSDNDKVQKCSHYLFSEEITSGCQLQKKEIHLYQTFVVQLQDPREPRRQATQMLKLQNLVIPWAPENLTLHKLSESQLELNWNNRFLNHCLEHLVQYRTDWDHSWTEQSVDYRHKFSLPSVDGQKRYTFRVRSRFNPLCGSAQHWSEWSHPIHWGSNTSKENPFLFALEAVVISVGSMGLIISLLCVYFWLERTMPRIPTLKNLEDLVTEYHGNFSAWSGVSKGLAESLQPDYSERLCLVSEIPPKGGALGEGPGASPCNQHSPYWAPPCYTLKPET

[2] = molecular target: T2, intermediate affinity hIL-2 receptor complex (IL-2Rβγ) (human, UniProt P14784 27-551; P31785 23-369); test: cell-based or functional assay
T2 sequence 1: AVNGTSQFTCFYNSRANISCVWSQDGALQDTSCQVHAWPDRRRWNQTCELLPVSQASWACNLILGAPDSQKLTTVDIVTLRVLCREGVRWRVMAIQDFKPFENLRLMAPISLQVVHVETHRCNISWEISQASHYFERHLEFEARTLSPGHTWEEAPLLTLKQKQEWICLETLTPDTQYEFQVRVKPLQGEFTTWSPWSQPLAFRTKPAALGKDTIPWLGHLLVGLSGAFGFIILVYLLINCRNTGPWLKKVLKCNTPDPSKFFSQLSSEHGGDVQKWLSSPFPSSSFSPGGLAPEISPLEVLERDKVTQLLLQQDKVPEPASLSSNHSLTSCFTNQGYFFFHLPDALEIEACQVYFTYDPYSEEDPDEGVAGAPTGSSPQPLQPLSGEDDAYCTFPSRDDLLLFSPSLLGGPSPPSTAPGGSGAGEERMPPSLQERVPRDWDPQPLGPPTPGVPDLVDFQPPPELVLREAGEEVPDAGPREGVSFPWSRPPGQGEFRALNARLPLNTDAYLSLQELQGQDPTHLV
T2 sequence 2: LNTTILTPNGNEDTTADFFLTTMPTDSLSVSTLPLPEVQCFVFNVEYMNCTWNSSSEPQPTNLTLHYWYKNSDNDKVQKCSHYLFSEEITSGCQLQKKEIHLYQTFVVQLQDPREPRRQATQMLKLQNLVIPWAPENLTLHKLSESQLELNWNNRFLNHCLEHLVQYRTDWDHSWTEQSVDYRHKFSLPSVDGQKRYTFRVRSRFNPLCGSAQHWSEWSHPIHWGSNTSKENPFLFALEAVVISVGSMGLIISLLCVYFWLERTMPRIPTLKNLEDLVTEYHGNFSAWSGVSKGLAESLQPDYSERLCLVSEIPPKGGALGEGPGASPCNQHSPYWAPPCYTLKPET

Row | Binder | Fold change from rhIL-2 (NK-92), pSTAT5 titration [1] [fold] | Fold change from rhIL-2 (TF1 + IL-2Rβ), pSTAT5 titration [2] [fold]
1 | 1H3-hIgG1-L6-hCD25(1-164)-L20-hIL-2 (D20H) (other) heavy: EVQLVESGGGLVQPGRSLKLSCAVSGFTFSDYAMAWVRQAPKKGLEWVATISYDGSRTYYRDSVKGRFTISRDNAKITLYLQMDSLRSEDTATYYCARHGSGYFDYWGQGVMVTVSS[not shown - human IgG1 constant region]SGGGGSELCDDDPPEIPHATFKAMAYKEGTMLNCECKRGFRRIKSGSLYMLCTGNSSHSSWDNQCQCTSSATRNTTKQVTPQPEEQKERKTTEMQSPMQPVDQASLPGHCREPPPWENEATERIYHFVVGQMVYYQCVQGYRALHRGPAESVCKMTHGKTRWTQPQLICTSGGGGSGGGGSGGGGSGGGS[not shown - about 150 residues] light: DTVLTQSPALAVSPGERVTISCRASESVRTGVHWYQQKPGQQPKLLIYGASNLESGVPARFSGSGSGTDFTLTIDPVEADDTATYFCQQSWNDPFTFGSGTKLEIKRTVAAPSVFIFPPSDEQLKSGTASVVCLLNNFYPREAKVQWKVDNALQSGNSQESVTEQDSKDSTYSLSSTLTLSKADYEKHKVYACEVTHQGLSSPVTKSFNRGEC | > 10000 | > 10000
2 | 1H3-hIgG1-L6-hCD25(1-164)-L20-hIL-2 (D20F) (other) heavy: EVQLVESGGGLVQPGRSLKLSCAVSGFTFSDYAMAWVRQAPKKGLEWVATISYDGSRTYYRDSVKGRFTISRDNAKITLYLQMDSLRSEDTATYYCARHGSGYFDYWGQGVMVTVSS[not shown - human IgG1 constant region]SGGGGSELCDDDPPEIPHATFKAMAYKEGTMLNCECKRGFRRIKSGSLYMLCTGNSSHSSWDNQCQCTSSATRNTTKQVTPQPEEQKERKTTEMQSPMQPVDQASLPGHCREPPPWENEATERIYHFVVGQMVYYQCVQGYRALHRGPAESVCKMTHGKTRWTQPQLICTSGGGGSGGGGSGGGGSGGGS[not shown - about 150 residues] light: DTVLTQSPALAVSPGERVTISCRASESVRTGVHWYQQKPGQQPKLLIYGASNLESGVPARFSGSGSGTDFTLTIDPVEADDTATYFCQQSWNDPFTFGSGTKLEIKRTVAAPSVFIFPPSDEQLKSGTASVVCLLNNFYPREAKVQWKVDNALQSGNSQESVTEQDSKDSTYSLSSTLTLSKADYEKHKVYACEVTHQGLSSPVTKSFNRGEC | > 10000 | > 10000
3 | 1H3-hIgG1-L6-hCD25(1-164)-L20-hIL-2 (D20R) (other) heavy: EVQLVESGGGLVQPGRSLKLSCAVSGFTFSDYAMAWVRQAPKKGLEWVATISYDGSRTYYRDSVKGRFTISRDNAKITLYLQMDSLRSEDTATYYCARHGSGYFDYWGQGVMVTVSS[not shown - human IgG1 constant region]SGGGGSELCDDDPPEIPHATFKAMAYKEGTMLNCECKRGFRRIKSGSLYMLCTGNSSHSSWDNQCQCTSSATRNTTKQVTPQPEEQKERKTTEMQSPMQPVDQASLPGHCREPPPWENEATERIYHFVVGQMVYYQCVQGYRALHRGPAESVCKMTHGKTRWTQPQLICTSGGGGSGGGGSGGGGSGGGS[not shown - about 150 residues] light: DTVLTQSPALAVSPGERVTISCRASESVRTGVHWYQQKPGQQPKLLIYGASNLESGVPARFSGSGSGTDFTLTIDPVEADDTATYFCQQSWNDPFTFGSGTKLEIKRTVAAPSVFIFPPSDEQLKSGTASVVCLLNNFYPREAKVQWKVDNALQSGNSQESVTEQDSKDSTYSLSSTLTLSKADYEKHKVYACEVTHQGLSSPVTKSFNRGEC | > 10000 | > 10000
4 | 1H3-hIgG1-L6-hCD25(1-164)-L20-hIL-2 (D20W) (other) heavy: EVQLVESGGGLVQPGRSLKLSCAVSGFTFSDYAMAWVRQAPKKGLEWVATISYDGSRTYYRDSVKGRFTISRDNAKITLYLQMDSLRSEDTATYYCARHGSGYFDYWGQGVMVTVSS[not shown - human IgG1 constant region]SGGGGSELCDDDPPEIPHATFKAMAYKEGTMLNCECKRGFRRIKSGSLYMLCTGNSSHSSWDNQCQCTSSATRNTTKQVTPQPEEQKERKTTEMQSPMQPVDQASLPGHCREPPPWENEATERIYHFVVGQMVYYQCVQGYRALHRGPAESVCKMTHGKTRWTQPQLICTSGGGGSGGGGSGGGGSGGGS[not shown - about 150 residues] light: DTVLTQSPALAVSPGERVTISCRASESVRTGVHWYQQKPGQQPKLLIYGASNLESGVPARFSGSGSGTDFTLTIDPVEADDTATYFCQQSWNDPFTFGSGTKLEIKRTVAAPSVFIFPPSDEQLKSGTASVVCLLNNFYPREAKVQWKVDNALQSGNSQESVTEQDSKDSTYSLSSTLTLSKADYEKHKVYACEVTHQGLSSPVTKSFNRGEC | > 10000 | > 10000

Further lines, results first:

Row | Fold change from rhIL-2 (NK-92), pSTAT5 titration [1] [fold] | Fold change from rhIL-2 (TF1 + IL-2Rβ), pSTAT5 titration [2] [fold] | Binder
5 | 305 | 44 | 1H3-hIgG1-L6-hCD25(1-164)-L20-hIL-2 (S87A) (other) heavy: EVQLVESGGGLVQPGRSLKLSCAVSGFTFSDYAMAWVRQAPKKGLEWVATISYDGSRTYYRDSVKGRFTISRDNAKITLYLQMDSLRSEDTATYYCARHGSGYFDYWGQGVMVTVSS[not shown - human IgG1 constant region]SGGGGSELCDDDPPEIPHATFKAMAYKEGTMLNCECKRGFRRIKSGSLYMLCTGNSSHSSWDNQCQCTSSATRNTTKQVTPQPEEQKERKTTEMQSPMQPVDQASLPGHCREPPPWENEATERIYHFVVGQMVYYQCVQGYRALHRGPAESVCKMTHGKTRWTQPQLICTSGGGGSGGGGSGGGGSGGGS[not shown - about 150 residues] light: DTVLTQSPALAVSPGERVTISCRASESVRTGVHWYQQKPGQQPKLLIYGASNLESGVPARFSGSGSGTDFTLTIDPVEADDTATYFCQQSWNDPFTFGSGTKLEIKRTVAAPSVFIFPPSDEQLKSGTASVVCLLNNFYPREAKVQWKVDNALQSGNSQESVTEQDSKDSTYSLSSTLTLSKADYEKHKVYACEVTHQGLSSPVTKSFNRGEC
6 | > 10000 | > 10000 | 1H3-hIgG1-L6-hCD25(1-164)-L20-hIL-2 (D20Y) (other) heavy: EVQLVESGGGLVQPGRSLKLSCAVSGFTFSDYAMAWVRQAPKKGLEWVATISYDGSRTYYRDSVKGRFTISRDNAKITLYLQMDSLRSEDTATYYCARHGSGYFDYWGQGVMVTVSS[not shown - human IgG1 constant region]SGGGGSELCDDDPPEIPHATFKAMAYKEGTMLNCECKRGFRRIKSGSLYMLCTGNSSHSSWDNQCQCTSSATRNTTKQVTPQPEEQKERKTTEMQSPMQPVDQASLPGHCREPPPWENEATERIYHFVVGQMVYYQCVQGYRALHRGPAESVCKMTHGKTRWTQPQLICTSGGGGSGGGGSGGGGSGGGS[not shown - about 150 residues] light: DTVLTQSPALAVSPGERVTISCRASESVRTGVHWYQQKPGQQPKLLIYGASNLESGVPARFSGSGSGTDFTLTIDPVEADDTATYFCQQSWNDPFTFGSGTKLEIKRTVAAPSVFIFPPSDEQLKSGTASVVCLLNNFYPREAKVQWKVDNALQSGNSQESVTEQDSKDSTYSLSSTLTLSKADYEKHKVYACEVTHQGLSSPVTKSFNRGEC
7 | > 10000 | > 10000 | 1H3-hIgG1-L6-hCD25(1-164)-L20-hIL-2 (D84K) (other) heavy: EVQLVESGGGLVQPGRSLKLSCAVSGFTFSDYAMAWVRQAPKKGLEWVATISYDGSRTYYRDSVKGRFTISRDNAKITLYLQMDSLRSEDTATYYCARHGSGYFDYWGQGVMVTVSS[not shown - human IgG1 constant region]SGGGGSELCDDDPPEIPHATFKAMAYKEGTMLNCECKRGFRRIKSGSLYMLCTGNSSHSSWDNQCQCTSSATRNTTKQVTPQPEEQKERKTTEMQSPMQPVDQASLPGHCREPPPWENEATERIYHFVVGQMVYYQCVQGYRALHRGPAESVCKMTHGKTRWTQPQLICTSGGGGSGGGGSGGGGSGGGS[not shown - about 150 residues] light: DTVLTQSPALAVSPGERVTISCRASESVRTGVHWYQQKPGQQPKLLIYGASNLESGVPARFSGSGSGTDFTLTIDPVEADDTATYFCQQSWNDPFTFGSGTKLEIKRTVAAPSVFIFPPSDEQLKSGTASVVCLLNNFYPREAKVQWKVDNALQSGNSQESVTEQDSKDSTYSLSSTLTLSKADYEKHKVYACEVTHQGLSSPVTKSFNRGEC
